Data set [1] concerns human diffuse large B-cell lymphoma cells (Karpas 422 cell). Description: Karpas 422 cell proliferation, Calcein AM staining. The class given is cell-based.
Data set [2] concerns human diffuse large cell lymphoma B lymphocytes (Pfeiffer cell). Nature of the data set: Pfeiffer cell proliferation, Calcein AM staining. The class given is cell-based.
Data set [3] concerns human diffuse large B-cell lymphoma cells (WSU-DLCL2 cell). Nature of the data set: Pharmacodynamic experiment, WSU-DLCL2 transplanted tumor model in mice. Particulars: for inhibition in vivo at 150 mg/kg: Mus musculus, WSUDLCL2, po, 504 h, read-out: inhibited tumor growth; for inhibited tumor growth: 150 mg/kg, intragastrically, twice a day for 21 days. It counts as in vivo, mice (CB17/SCID).

Data set [4] can be described thus: Pharmacokinetic experiment in rats. It counts as in vivo, SD rats. The note with it: for AUC / Cmax / bioavailability: male, SD, rat, plasma; for AUC: read-out: Area Curve (AUC, ng/mL · h); for half-life: male, SD, rat, plasma; rats, Intravenous-Dose 4 mg/kg; read-out: Half life T1/2, h) (converted); for Cmax: read-out: Blood Drug level (Cmax, ng/mL); for bioavailability: read-out: Bioavailability (P %). As to the method:
A certain amount of compound was weighted and dissolved in 0.1% Tween under vortex and ultrasound, and 0.5% carboxymethyl cellulose sodium (CMC-NA) solution was added to form a uniform solution.

Another data set concerns the target Mutant type EZH2(A677G) (Homo sapiens (Human), UniProt Q15910, A677G). Nature of the data set: AlphaLISA, mutant type PRC2 complex EZH2(A677G). The class given is biochemical. Particulars: read-out: Mutant type EZH2(A677G) IC59 Nanomoles per Liter.
The mark [5] stands for this setting: KARPAS-422, data of 14th day, read-out: Karpas422 Proliferation IC50 Nanomoles per Liter.
[6] abbreviates: Homo sapiens, Pfeiffer, data of 14th day, read-out: Pfeiffer Proliferation IC50 Nanomoles per Liter.
[7] abbreviates: rats, oral 20 mg/kg vs intravenous 4 mg/kg.
Setting [8] is: data of 14th day, read-out: Pfeiffer Proliferation IC50 Nanomoles per Liter.
Where [9] appears, read: KARPAS-422, read-out: Karpas422 Proliferation IC50 Nanomoles per Liter (nM).
Where [10] appears, read: Homo sapiens, Pfeiffer, read-out: Pfeiffer Proliferation IC50 Nanomoles per Liter (nM).

The source of these data is patent publication US12473298B2, “Amide compounds, preparation method therefor, and use thereof in the medical field” (Shanghai Synergy Pharmaceutical Sciences Co., Ltd., priority 2019, dated 2025).

The term bioavailability denotes dose-corrected exposure relative to a reference, in per cent.

Read-outs that look alike come from different tables or passages of the source.

Mutant type EZH2(A677G), sequence (Q15910 whole entry A677G): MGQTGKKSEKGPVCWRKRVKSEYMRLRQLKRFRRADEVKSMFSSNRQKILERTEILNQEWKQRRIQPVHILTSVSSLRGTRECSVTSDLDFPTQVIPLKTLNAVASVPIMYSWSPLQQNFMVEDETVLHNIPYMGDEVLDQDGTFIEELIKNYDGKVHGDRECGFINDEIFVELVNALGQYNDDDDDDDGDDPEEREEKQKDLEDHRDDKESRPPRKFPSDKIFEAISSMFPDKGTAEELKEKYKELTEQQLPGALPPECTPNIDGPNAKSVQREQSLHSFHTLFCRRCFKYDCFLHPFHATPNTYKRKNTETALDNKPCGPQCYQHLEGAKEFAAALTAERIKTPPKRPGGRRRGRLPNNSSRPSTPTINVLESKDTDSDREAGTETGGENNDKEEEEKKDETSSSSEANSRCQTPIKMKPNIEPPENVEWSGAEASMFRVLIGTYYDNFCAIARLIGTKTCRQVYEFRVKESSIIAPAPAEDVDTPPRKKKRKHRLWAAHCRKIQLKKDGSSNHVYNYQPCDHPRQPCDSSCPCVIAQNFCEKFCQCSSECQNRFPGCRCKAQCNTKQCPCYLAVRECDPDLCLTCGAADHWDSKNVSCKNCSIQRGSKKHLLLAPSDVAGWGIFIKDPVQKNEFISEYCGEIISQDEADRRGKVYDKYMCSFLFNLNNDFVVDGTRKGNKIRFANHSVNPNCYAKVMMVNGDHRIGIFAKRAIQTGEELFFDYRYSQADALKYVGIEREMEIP
Mutant type EZH2(A677G), sequence (O75530 whole entry partner): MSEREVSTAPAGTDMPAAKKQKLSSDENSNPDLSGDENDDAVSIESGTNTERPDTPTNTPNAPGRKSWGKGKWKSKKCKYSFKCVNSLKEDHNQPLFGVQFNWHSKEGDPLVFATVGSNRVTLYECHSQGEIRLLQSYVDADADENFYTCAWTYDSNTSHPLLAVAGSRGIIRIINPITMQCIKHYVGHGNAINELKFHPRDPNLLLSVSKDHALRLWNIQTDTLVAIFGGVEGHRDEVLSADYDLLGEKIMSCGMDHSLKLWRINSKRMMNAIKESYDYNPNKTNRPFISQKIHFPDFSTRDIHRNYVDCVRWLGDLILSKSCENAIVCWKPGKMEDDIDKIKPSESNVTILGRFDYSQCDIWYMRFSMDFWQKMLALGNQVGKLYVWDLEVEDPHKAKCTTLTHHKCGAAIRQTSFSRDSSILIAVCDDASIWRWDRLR
Mutant type EZH2(A677G), sequence (Q15022 whole entry partner): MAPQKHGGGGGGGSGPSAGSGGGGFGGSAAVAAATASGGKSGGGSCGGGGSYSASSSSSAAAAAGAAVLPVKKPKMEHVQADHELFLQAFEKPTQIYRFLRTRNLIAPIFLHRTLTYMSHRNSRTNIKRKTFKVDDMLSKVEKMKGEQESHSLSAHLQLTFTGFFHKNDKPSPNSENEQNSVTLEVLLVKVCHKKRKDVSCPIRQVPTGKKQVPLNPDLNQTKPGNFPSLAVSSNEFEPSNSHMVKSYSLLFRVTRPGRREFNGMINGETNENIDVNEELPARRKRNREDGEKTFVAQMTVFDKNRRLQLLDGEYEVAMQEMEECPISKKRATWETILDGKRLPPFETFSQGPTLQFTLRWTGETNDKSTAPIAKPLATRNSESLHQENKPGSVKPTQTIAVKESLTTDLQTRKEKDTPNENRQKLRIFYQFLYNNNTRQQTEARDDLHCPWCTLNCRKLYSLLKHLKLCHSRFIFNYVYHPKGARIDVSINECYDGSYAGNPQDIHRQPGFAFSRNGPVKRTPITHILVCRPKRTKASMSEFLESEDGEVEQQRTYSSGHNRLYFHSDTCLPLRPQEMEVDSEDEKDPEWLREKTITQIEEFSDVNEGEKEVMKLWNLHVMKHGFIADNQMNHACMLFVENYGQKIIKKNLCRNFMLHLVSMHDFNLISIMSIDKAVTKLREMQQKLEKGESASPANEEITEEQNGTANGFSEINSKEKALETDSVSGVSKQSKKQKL
Mutant type EZH2(A677G), sequence (Q09028 whole entry partner): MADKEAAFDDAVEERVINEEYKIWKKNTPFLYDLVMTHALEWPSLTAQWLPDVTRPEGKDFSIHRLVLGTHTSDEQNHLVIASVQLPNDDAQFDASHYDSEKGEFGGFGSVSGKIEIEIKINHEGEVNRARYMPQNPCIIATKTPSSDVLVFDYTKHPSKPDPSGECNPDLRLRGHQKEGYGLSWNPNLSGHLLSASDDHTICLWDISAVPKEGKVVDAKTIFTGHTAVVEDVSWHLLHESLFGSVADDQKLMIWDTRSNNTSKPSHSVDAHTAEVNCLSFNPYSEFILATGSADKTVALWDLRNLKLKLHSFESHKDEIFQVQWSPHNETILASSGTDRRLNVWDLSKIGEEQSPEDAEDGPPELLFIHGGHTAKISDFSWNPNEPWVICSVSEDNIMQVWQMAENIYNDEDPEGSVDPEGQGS
Mutant type EZH2(A677G), sequence (Q6ZN18 whole entry partner): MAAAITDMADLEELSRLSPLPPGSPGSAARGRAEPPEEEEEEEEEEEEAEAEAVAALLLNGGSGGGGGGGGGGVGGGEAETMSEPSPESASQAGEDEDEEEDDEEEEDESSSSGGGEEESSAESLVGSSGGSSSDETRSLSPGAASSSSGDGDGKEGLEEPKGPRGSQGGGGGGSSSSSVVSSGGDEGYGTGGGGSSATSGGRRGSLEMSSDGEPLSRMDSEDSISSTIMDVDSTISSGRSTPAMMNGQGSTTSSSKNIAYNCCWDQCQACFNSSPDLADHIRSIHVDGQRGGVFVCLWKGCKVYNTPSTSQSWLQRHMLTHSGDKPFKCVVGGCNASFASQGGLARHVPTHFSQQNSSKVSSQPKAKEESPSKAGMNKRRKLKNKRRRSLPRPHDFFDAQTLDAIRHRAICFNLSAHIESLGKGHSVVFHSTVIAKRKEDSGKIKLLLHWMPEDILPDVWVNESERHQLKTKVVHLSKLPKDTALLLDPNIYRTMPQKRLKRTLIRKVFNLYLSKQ

On to `CCN(c1cc(-c2ccc3c(c2)NC(=O)C32CCOCC2)cc(C(=O)NCc2c(C)cc(C)[nH]c2=O)c1C)C1CCC(N(C)CCOC)CC1` (stereo not drawn) [Example 99, N-((4,6-Dimethyl-2-oxo-1,2-dihydropyridin-3-yl)methyl)-3-(ethyl(4-((2-methoxyethyl)(methyl)amino)cyclohexyl)amino)-2-methyl-5-(2-oxo-2′,3′,5′,6′-tetrahydrospiro[dihydroindole-3,4′-pyran]-6-yl)benzamide], for which the results for the IC50 in data set [1] (setting [5]) and in data set [2] (setting [6]) were 4.15 nM and 3.47 nM, respectively.

Regarding `CCN(c1cc(-c2ccc3c(c2)N(C(C)C)CC32CCOCC2)cc(C(=O)NCc2c(C)cc(C)[nH]c2=O)c1C)C1CCOCC1` [Example 25], in data set [3], the inhibition in vivo at 150 mg/kg was 87%. The AUC in data set [4] (rats, Intravenous-Dose 4 mg/kg) came out at 1020 ng·h/mL. In addition, in data set [4], the half-life is 1.81 h. Moreover, in data set [4] (rats, Oral-Dose 20 mg/kg), the AUC was 1730 ng·h/mL and the Cmax came out at 590 ng/mL. Also, in data set [4] (setting [7]), the bioavailability came out at 33.7%.

Regarding `CCN(c1cc(-c2ccc3c(c2)CCC32CCN(CC(F)(F)F)CC2)cc(C(=O)NCc2c(OC)cc(C)[nH]c2=O)c1C)C1CCOCC1` [Example 36], the IC50 in data set [2] (setting [8]) is 1.54 nM.

With `CCN(c1cc(-c2ccc3c(c2)N(C(C)C)C(=O)C32CCOCC2)c(F)c(C(=O)NCc2c(C)cc(C)[nH]c2=O)c1C)C1CCOCC1` [Example 60, N-((4,6-dimethyl-2-oxo-1,2-dihydropyridin-3-yl)methyl)-3-(ethyl(tetrahydro-2H-pyran-4-yl)amino)-6-fluoro-5-(1-isopropyl-2-oxo-2′,3′,5′,6′-tetrahydrospiro[dihydroindole-3,4′-pyran]-6-yl)-2-methylbenzamide], the IC50 in data set [1] (setting [9]) was 4.35 nM; in data set [2] (setting [10]) it was 2.1 nM.

As to `CCCN1C(=O)C2(CCOCC2)c2ccc(-c3cc(N(CC)C4CCOCC4)c(C)c(C(=O)NCc4c(C)cc(C)[nH]c4=O)c3Cl)cc21` [Example 47, 2-chloro-N-((4,6-dimethyl-2-carbonyl-1,2-dihydropyridin-3-yl)methyl)-5-(ethyl(tetrahydro-2H-pyran-4-yl)amino)-6-methyl-3-(2-carbonyl-1-propyl-2′,3′.5′,6′-tetrahydrospiro[dihydroindole-3,4′-pyran]-6-yl)benzamide], the IC50 was 4.15 nM in data set [1] (setting [5]) and 3.2 nM in data set [2] (setting [6]).

For `CCN(c1cc(-c2ccc3c(c2)N(C(C)C)CC32CCOCC2)c(F)c(C(=O)NCc2c(C)cc(C)[nH]c2=O)c1C)C1CCOCC1` [Example 63, N-((4,6-dimethyl-2-oxo-1,2-dihydropyridin-3-yl)methyl)-3-(ethyl(tetrahydro-2H-pyran-4-yl)amino)-6-fluoro-5-(1-isopropyl-2′,3′,5′,6′-tetrahydrospiro[dihydroindole-3,4′-pyran]-6-yl)-2-methylbenzamide], the figures for the IC50 in data set [1] (setting [9]) and in data set [2] (setting [10]) were 3.76 nM and 2.89 nM, respectively.

In the case of `CCN(c1cc(-c2ccc3c(c2)OCC32CCOCC2)cc(C(=O)NCc2c(C)cc(C)[nH]c2=O)c1C)C1CCOCC1` [Example 105, N-((4,6-Dimethyl-2-oxo-1,2-dihydropyridin-3-yl)methyl)-3-(ethyl(tetrahydro-2H-pyran-4-yl)amino)-2-methyl-5-(2′,3′,5′,6′-tetrahydro-2H-spiro[benzofuran-3,4′-pyran]-6-yl)benzamide], the IC50 in data set [1] (setting [5]) is 3.68 nM; in data set [2] (setting [6]) it was 2.98 nM.

For the molecule `CCN(c1cc(-c2ccc3c(c2)N(CC(F)(F)C(F)(F)F)CC32CCOCC2)cc(C(=O)NCc2c(C)cc(C)[nH]c2=O)c1C)C1CCOCC1` [Example 51, N-((4,6-dimethyl-2-oxo-1,2-dihydropyridin-3-yl)methyl)-3-(ethyl(tetrahydro-2H-pyran-4-yl)amino)-2-methyl-5-(1-(2,2,3,3,3-pentafluoropropyl)-2′,3′,5′,6′-tetrahydrospiro[dihydroindole-3,4′-pyran]-6-yl)benzamide], in data set [3], the inhibited tumor growth came out at 88%.

As for `CCN(c1cc(-c2cc3c(cc2F)C2(CCOCC2)CC3)cc(C(=O)NCc2c(C)cc(C)[nH]c2=O)c1C)C1CCOCC1` [Example 23], the IC50 in data set [1] (setting [5]) was 2.98 nM; in data set [2] (setting [6]), 2.39 nM.

For `CCN(c1cc(-c2ccc3c(c2)CCC32CCN(CC(F)(F)C(F)(F)F)CC2)cc(C(=O)NCc2c(OC)cc(C)[nH]c2=O)c1C)C1CCOCC1` [Example 42], the values for the IC50 (at Mutant type EZH2(A677G); in data set [2] (setting [8])) were 0.49 nM and 1.27 nM, respectively.

As to `CCCN1C(=O)C2(CCOCC2)c2ccc(-c3cc(C(=O)NCc4c(C)cc(C)[nH]c4=O)c(C)c(N(CC)C4CCOCC4)c3)cc21` [Example 19], the IC50 in data set [1] (setting [9]) was 1.12 nM; in data set [2] (setting [10]), 0.15 nM. In addition, in data set [3], the inhibition in vivo at 150 mg/kg was 89%. Moreover, the AUC in data set [4] (rats, Intravenous-Dose 4 mg/kg) is 995 ng·h/mL; in data set [4] (rats, Oral-Dose 20 mg/kg), 1780 ng·h/mL. In addition, in data set [4], the half-life is 1.72 h. In addition, the Cmax in data set [4] (rats, Oral-Dose 20 mg/kg) came to 430 ng/mL. Also, in data set [4] (setting [7]), the bioavailability worked out at 35.7%.

Take `CCN1C(=O)C2(CCOCC2)c2ccc(-c3cc(N(CC)C4CCOCC4)c(C)c(C(=O)NCc4c(C)cc(C)[nH]c4=O)c3F)cc21` [Example 62, N-((4,6-dimethyl-2-oxo-1,2-dihydropyridin-3-yl)methyl)-3-(ethyl(tetrahydro-2H-pyran-4-yl)amino)-5-(1-ethyl-2-oxo-2′,3′,5′,6′-tetrahydrospiro[dihydroindole-3,4′-pyran]-6-yl)-6-fluoro-2-methylbenzamide]: the figures for the IC50 in data set [1] (setting [9]) and in data set [2] (setting [10]) were 0.58 nM and 0.27 nM, respectively.

`CCN(c1cc(-c2ccc3c(c2)N(C)CC32CCOCC2)cc(C(=O)NCc2c(C)cc(C)[nH]c2=O)c1C)C1CCOCC1` [Example 72, N-((4,6-dimethyl-2-oxo-1,2-dihydropyridin-3-yl)methyl)-3-(ethyl(tetrahydro-2H-pyran-4-yl)amino)-2-methyl-5-(1-methyl-2′,3′,5′,6′-tetrahydrospiro[dihydroindole-3,4′-pyran]-6-yl)benzamide]: the AUC in data set [4] (rats, Intravenous-Dose 4 mg/kg) is 890 ng·h/mL. For the same molecule, in data set [4], the half-life is 1.31 h. Moreover, in data set [4] (rats, Oral-Dose 20 mg/kg), the AUC came out at 1080 ng·h/mL and the Cmax worked out at 567 ng/mL. Also, the bioavailability in data set [4] (setting [7]) came to 24.3%.

“3-(ethyl(tetrahydro-2H-pyran-4-yl)amino)-5-(6-fluoro-2′,3′,5′,6′-tetrahydrospiro[indene-1,4′-pyran]-5-yl)-N-((4-methoxy-6-methyl-2-oxo-1,2-dihydropyridin-3-yl)methyl)-2-methylbenzamide 8-1 and 3-(ethyl(tetrahydro-2H-pyran-4-yl)amino)-5-(5-fluoro-2′,3′,5′,6′-tetrahydrospiro[indene-1,4′-pyran]-6-yl)-N-((4-methoxy-6-methyl-2-oxo-1,2-dihydropyridin-3-yl)methyl)-2-methylbenzamide 8-2 [Example 8]” showed an inhibited tumor growth in data set [3] of 84%. In data set [4] (rats, Intravenous-Dose 4 mg/kg), the “Area Curve (AUC, ng/mL · h)” value came out at 997.34 ng·h/mL and the “Half life T1/2, h)” value came to 1.07 h. Further, in data set [4] (rats, Oral-Dose 20 mg/kg), the “Area Curve (AUC, ng/mL · h)” value amounted to 1556.85 ng·h/mL and the “Blood Drug level (Cmax, ng/mL)” value was found to be 454.90 ng/mL. Further, the “Bioavailability (P %)” value in data set [4] (setting [7]) is 31.22%.

Take `CCN(c1cc(-c2ccc3c(c2)N(CCC(F)(F)F)C(=O)C32CCOCC2)c(Cl)c(C(=O)NCc2c(C)cc(C)[nH]c2=O)c1C)C1CCOCC1` [Example 53, 2-chloro-N-((4,6-dimethyl-2-oxo-1,2-dihydropyridin-3-yl)methyl)-5-(ethyl(tetrahydro-2H-pyran-4-yl)amino)-6-methyl-3-(2-oxo-1-(3,3,3-trifluoropropyl)-2′,3′,5′,6′-tetrahydrospiro[dihydroindole-3,4′-pyran]-6-yl)benzamide]: the results for the IC50 in data set [1] (setting [5]) and in data set [2] (setting [6]) were 1.72 nM and 1.56 nM, respectively.
